{"source": "PubChem BioAssay AID445", "about": "(National Center for Advancing Translational Sciences (NCATS), 2006)", "note": "Among all 110,000 compounds or so, about 40 (0.04%) were called active. This list was built around the results that the source calls inconclusive (neither active nor inactive); the mix of calls is not that of the screen. Calls follow the shape of the dose curve; as a rule, active = well fitted curve in the direction sought with a large enough effect in the signal ratio (not every such curve was filed as active); inconclusive = small, poorly fitted or top-dose-only effect, or a change in a side signal; inactive = flat fitted curve, though single readings scatter; the % refers to the signal ratio. A potency beside an inconclusive call is a rough fit, not a confirmed value."}
{"experiment": "IkB Signaling; also: potency is read from the fitted curve at half-maximal effect;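 as to IkBa stabilization activation: 0% = basal untreated cells and 100% = reference inhibitor full response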", "conditions": "ABC-DLBCL IkBa-CBG/CBR dual luciferase ratio (green luciferase fused to IkBa over red control in OCI-Ly3 lymphoma cells), 4 h; IkBa stabilization activation: at 57.1 µM (top of the series), scaled: untreated 0%, proteasome inhibitor 100% unless noted", "in_short": "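In this assay, an IκBα–CBG68 fusion accumulates when IKK-driven degradation is blocked; native CBR normalizes for cell number. OCI-Ly3 cells were treated 4 h with compound and doxycycline, then green and red light read after Chroma-Glo addition.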"}
{"compound": "COc1ccc(NC(=O)C2CCCN(S(=O)(=O)c3ccc4c(c3)CCCC(=O)N4)C2)cc1OC", "note": "(configuration not stated)", "IkBa stabilization activation": "inconclusive: 1.24% [signal inhibitor]"}
{"compound": "N/C(CSc1nc(-c2ccccc2)c(-c2ccccc2)o1)=N\\O", "IkBa stabilization activation": "inconclusive: 1.71% [signal inhibitor]"}
{"compound": "CCOc1ccc(/C=C/c2nc(C#N)c(N3CCCCC3)o2)cc1", "IkBa stabilization activation": "inactive"}
{"compound": "COc1ccc(-c2cc(C(=O)O)c(C)o2)cc1OC", "IkBa stabilization activation": "inconclusive: -1.35% [signal inhibitor]"}
{"compound": "Cc1ccc(OCC(=O)NCC2(N3CCOCC3)CCCCC2)cc1C", "IkBa stabilization activation": "inconclusive: 2.45% [signal inhibitor]"}
{"compound": "COc1cccc(-c2nnc(Nc3nc4c(F)cccc4s3)o2)c1", "Potency": "inconclusive: 2.51 µM [signal inhibitor, full curve]"}
{"compound": "CCCCN(CCCC)CCNC(=O)c1cn(CC)c2ccc(S(=O)(=O)N3CCc4ccccc4C3)cc2c1=O", "IkBa stabilization activation": "inconclusive: -3.32% [signal inhibitor]"}
{"compound": "CCOC(=O)Cn1nc(-c2ccccc2)c2cnc3ccc(OCC)cc3c21", "IkBa stabilization activation": "inactive"}
{"compound": "CCOC(=O)CSc1nc2c([nH]c3ccccc32)c(=O)n1-c1ccc(OC)cc1", "IkBa stabilization activation": "inactive"}
{"compound": "CN(c1ccccc1)S(=O)(=O)c1ccc(C(=O)Nc2nnc(-c3ccc(F)cc3)o2)cc1", "IkBa stabilization activation": "inactive"}
{"compound": "Cc1oc(-c2cccc(Cl)c2)nc1CN1CCC(C(=O)NCCCN2CCN(c3ccccc3F)CC2)CC1", "IkBa stabilization activation": "inconclusive: 0.196% [signal inhibitor]"}
{"compound": "COc1ccc(N(Cc2cccs2)C(=O)c2ccc(Br)o2)cc1", "IkBa stabilization activation": "inconclusive: 0.275% [signal inhibitor]"}
{"compound": "Cc1cc2c(c(=O)n1C)C(Cc1ccccc1)C(C#N)=C(N)O2", "note": "(configuration not stated)", "IkBa stabilization activation": "inactive"}
{"compound": "Cc1noc(C)c1-c1ccc2ncnc(NC3CC3)c2c1", "IkBa stabilization activation": "inconclusive: 9.32% [signal activator] [at 11.4 µM, scaled: untreated 0%, proteasome inhibitor 100%]"}
{"compound": "Cc1ccn2c(Nc3ccc(F)cc3)c(-c3ccccn3)nc2c1", "Potency": "inconclusive: 25.1 µM [signal inhibitor, single point]"}
{"compound": "COc1ccc(OC)c(Nc2ncnc3c2cnn3-c2cccc(Cl)c2)c1", "IkBa stabilization activation": "inconclusive: 0.426% [signal inhibitor]"}
{"compound": "CCCSc1nnc(Cc2cc(=O)[nH]c(=O)[nH]2)n1-c1cc(C)ccc1C", "IkBa stabilization activation": "inactive"}
{"compound": "CCCCC(=O)OC1=C(C(C)=O)N(Cc2ccccc2)S(=O)(=O)c2ccccc21", "IkBa stabilization activation": "inconclusive: 4.89% [signal inhibitor]"}
{"compound": "CCC(Sc1ncnc2sc3c(c12)CCCC3)C(=O)OC(C)C", "note": "(configuration not stated)", "IkBa stabilization activation": "inconclusive: 8.11% [signal inhibitor]"}
{"compound": "COc1ccccc1N1CCN(C(=O)CCc2nnc3n(C)c(=O)c4sccc4n23)CC1", "IkBa stabilization activation": "inconclusive: 6.58% [signal inhibitor]"}
{"compound": "COc1ccc(NC(=O)C2CCCN2S(=O)(=O)c2ccc3c(c2)CCC(=O)N3)cc1Cl", "note": "(configuration not stated)", "Potency": "inconclusive: 10 µM [signal inhibitor, partial curve]"}
{"compound": "Cc1nnc(NC(=O)c2ccc3ccccc3c2)o1", "IkBa stabilization activation": "inconclusive: 9.85% [signal activator]"}
{"compound": "CNC(=O)c1cc2c(=O)n3cccc(C)c3nc2n(C(C)C)c1=N", "IkBa stabilization activation": "inactive"}
{"compound": "O=C1CC(c2ccc(F)cc2)C2=C(CCCC2=O)N1", "note": "(configuration not stated)", "IkBa stabilization activation": "inactive"}
{"compound": "O=C(CCc1ccccc1)Nc1cc(Cl)ccc1O", "IkBa stabilization activation": "inconclusive: 6.23% [signal inhibitor]"}
{"compound": "Cn1cccc1Cc1nnc(SCC(=O)Nc2nccs2)n1CCc1ccccc1", "IkBa stabilization activation": "inactive"}
{"compound": "Cc1ccc(NC(=O)C2CCCN2S(=O)(=O)c2ccc3nc(-c4ccccc4)[nH]c3c2)cc1F", "note": "(configuration not stated)", "IkBa stabilization activation": "inconclusive: -2.91% [signal inhibitor]"}
{"compound": "COc1ccc2c(=O)c3c(=O)n(Cc4ccco4)c(-c4ccc(C)cc4)nc3oc2c1", "IkBa stabilization activation": "inactive"}
{"compound": "Cc1nn(Cc2nc(-c3cccs3)no2)c(C)c1Br", "IkBa stabilization activation": "inactive"}
{"compound": "Cc1ccc(C(=O)Nc2ccccc2N2CCN(C(=O)C(C)C)CC2)cc1", "IkBa stabilization activation": "inactive"}
{"compound": "Oc1ccccc1", "IkBa stabilization activation": "inactive"}
{"compound": "Cn1c(=O)c(C#N)c(-c2ccccc2)n2cnnc12", "Potency": "inconclusive: 7.94 µM [signal inhibitor, partial curve]"}
{"compound": "Cc1ccc(-n2ncc3c(N(C)Cc4ccccc4)ncnc32)cc1", "IkBa stabilization activation": "inactive"}
{"compound": "CCCOc1ccc(-c2nnc(-c3ccco3)o2)cc1", "IkBa stabilization activation": "inactive"}
{"compound": "O=C(Nc1ccc2ccccc2c1)c1cccnc1", "IkBa stabilization activation": "inactive"}
{"compound": "COc1ccc2[nH]c(=O)c(CN(C(=O)c3cccc(Cl)c3)c3ccccc3OC)cc2c1", "IkBa stabilization activation": "inconclusive: 0.222% [signal inhibitor]"}
{"compound": "COc1ccc(S(=O)(=O)NCCc2csc3nc(-c4ccc(Cl)cc4)nn23)cc1C", "IkBa stabilization activation": "inconclusive: -1.17% [signal inhibitor]"}
{"compound": "CS(=O)(=O)N1CCc2cc(S(=O)(=O)NCc3ccccc3Cl)ccc21", "IkBa stabilization activation": "inconclusive: 1.98% [signal inhibitor]"}
{"compound": "COc1ccc(-c2nc(Cn3c(SCc4cccc(Cl)c4)nc4ccncc43)c(C)o2)cc1", "IkBa stabilization activation": "inconclusive: 0.0745% [signal inhibitor]"}
{"compound": "Cc1ccc(Sc2c(C)nn(C(=O)COc3ccccc3)c2C)cc1", "IkBa stabilization activation": "inconclusive: 18.5% [signal inhibitor]"}
{"compound": "CCOC(=O)c1c(S(=O)(=O)N2CCCC(C(=O)N(C)Cc3ccccc3)C2)c(C)n(C)c1C", "note": "(configuration not stated)", "IkBa stabilization activation": "inactive"}
{"compound": "Cc1cccc(-n2c(-c3ccco3)nc3c(cnn3-c3ccccc3C)c2=O)c1", "IkBa stabilization activation": "inconclusive: 2.41% [signal inhibitor]"}
{"compound": "Cc1ccc(C(c2sc3nc(-c4ccco4)nn3c2O)N2CCOCC2)cc1", "note": "(configuration not stated)", "IkBa stabilization activation": "inactive"}
{"compound": "COc1ccccc1NC(=O)CSc1nc2ccccc2c(=O)n1CCC(=O)NC1CCCCC1", "IkBa stabilization activation": "inconclusive: 2.85% [signal inhibitor]"}
{"compound": "COc1cc2c(C#N)c(N3CCN(c4ccccc4OC)CC3)nc(N)c2c(N)n1", "IkBa stabilization activation": "inconclusive: 0.638% [signal inhibitor]"}
{"compound": "Cc1nn(C(=O)c2ccccc2)c(C)c1Sc1ccc(Cl)cc1", "Potency": "inconclusive: 31.6 µM [signal inhibitor, single point]"}
{"compound": "Cc1ccc(Cn2nc(C)c(NC(=O)c3cc(-c4ccc(F)cc4)on3)c2C)cc1", "IkBa stabilization activation": "inconclusive: 7.46% [signal inhibitor]"}
{"compound": "CCOc1ccc(NC(=O)Cn2c(=O)oc3cc(S(=O)(=O)NC4CCCC4)ccc32)cc1", "IkBa stabilization activation": "inconclusive: 16.6% [signal inhibitor]"}
{"compound": "O=C1c2ccccc2C(Nc2ccc3c(c2)OCCO3)N1Cc1ccccc1", "note": "(configuration not stated)", "IkBa stabilization activation": "inconclusive: 16.8% [signal inhibitor]"}
{"compound": "CN(C)C=Nc1ncc2c([nH]c3ccccc32)c1C#N", "IkBa stabilization activation": "inactive"}
{"compound": "CC(C)(C(=O)O)c1ccc([C@@H](O)CCCN2CCC(C(O)(c3ccccc3)c3ccccc3)CC2)cc1", "IkBa stabilization activation": "inactive"}
{"compound": "COc1ccc(OC)c(C(c2nnnn2CCC(C)C)N2CCN(C(=O)c3ccco3)CC2)c1", "note": "(configuration not stated)", "IkBa stabilization activation": "inactive"}
{"compound": "COc1ccc2cc(CN(CCc3ccccc3)Cc3nnnn3Cc3ccco3)c(=O)[nH]c2c1", "IkBa stabilization activation": "inconclusive: 2.14% [signal inhibitor]"}
{"compound": "CCc1ccc(NC(=O)C2CCCN(S(=O)(=O)c3ccc4c(c3)CCCN4C(C)=O)C2)cc1", "note": "(configuration not stated)", "IkBa stabilization activation": "inconclusive: 3.68% [signal inhibitor]"}
{"compound": "Cc1ccc(-n2ncc(C(=O)N3CCCCC3)c2C2CCN(C(=O)OC(C)(C)C)CC2)cc1C", "IkBa stabilization activation": "inconclusive: 0.284% [signal inhibitor]"}
{"compound": "Cc1cccc(OCC(=O)NCC2(N3CCN(C)CC3)CCCCC2)c1C", "IkBa stabilization activation": "inconclusive: 1.72% [signal inhibitor]"}
{"compound": "CCSc1nnc(-c2cccc(S(=O)(=O)N(C)C)c2)n1-c1cc(OC)ccc1OC", "IkBa stabilization activation": "inactive"}
{"compound": "O=c1oc(-c2ccco2)nc2ccccc12", "Potency": "inconclusive: 25.1 µM [rising, partial curve]"}
{"compound": "CCc1ccc(S(=O)(=O)c2nnn(-c3ccc(F)cc3)c2N)cc1", "IkBa stabilization activation": "inconclusive: 3.76% [signal inhibitor]"}
{"compound": "Cc1cccc(NC(=O)Cn2nnc(-c3cccs3)n2)c1C", "IkBa stabilization activation": "inconclusive: 1.86% [signal inhibitor]"}
{"compound": "CC(=O)N1CCc2c(sc3c2c(=O)n(-c2ccccc2)c(=O)n3CC(=O)c2ccc(Cl)cc2)C1", "IkBa stabilization activation": "inconclusive: 0.075% [signal inhibitor]"}
{"compound": "COCCNC(=O)CCn1c(=O)c2cc(OC)c(OC)cc2n(CC(=O)Nc2ccc(F)c(Cl)c2)c1=O", "Potency": "inconclusive: 7.94 µM [signal inhibitor, partial curve]"}
{"compound": "O=C(Nc1nnc(C2CC2)s1)C1Cc2ccccc2CN1S(=O)(=O)c1cccs1", "note": "(configuration not stated)", "IkBa stabilization activation": "inconclusive: 2.2% [signal inhibitor]"}
{"compound": "Cc1cc(C)c(NC(=O)Cn2c(=O)n(-c3cccc(C(F)(F)F)c3)c(=O)c3c(C)c(C)sc32)c(C)c1", "IkBa stabilization activation": "inconclusive: 9.01% [signal inhibitor]"}
{"compound": "CCCCc1c(O)nc(SCC(=O)Nc2ccc3c(c2)CCC3)[nH]c1=O", "IkBa stabilization activation": "inactive"}
{"compound": "O=C(O)c1ccc(Nc2nc3ccccc3c3nncn23)cc1", "Potency": "inconclusive: 15.8 µM [signal inhibitor, partial curve]"}
{"compound": "COc1ccccc1NC(=O)C(Cc1ccccc1)NS(=O)(=O)c1ccc2c(c1)CCN2C(C)=O", "note": "(configuration not stated)", "IkBa stabilization activation": "inconclusive: 1.9% [signal inhibitor]"}
{"compound": "CCc1ccccc1Nc1nn2c(=O)c3ccc(C(=O)NCc4ccc(C)cc4)cc3nc2s1", "IkBa stabilization activation": "inconclusive: 2.58% [signal inhibitor]"}
{"compound": "CCCCc1nn2c(=O)cc(COC(=O)c3cccc(NC(=O)COc4ccccc4)c3)nc2s1", "Potency": "inconclusive: 31.6 µM [signal inhibitor]"}
{"compound": "Cc1nc2ccccc2c(=O)n1N", "IkBa stabilization activation": "inactive"}
{"compound": "Cc1cc(Nc2cccc(C(F)(F)F)c2)n2nc(C)nc2n1", "IkBa stabilization activation": "inactive"}
{"compound": "CCN(CCCNC(=O)CSc1cc(=O)n(C)c2ccccc12)c1ccccc1", "IkBa stabilization activation": "inconclusive: -0.236% [signal inhibitor]"}
